The text below walks through data of the supplement of paper PMC11417369.

The other results are listed elsewhere or left out.

In the assay the test system is PfHDP1 homeodomain (GST-tagged). As to the kind of experiment: gcPBM binding intensity (ln(normalized median fluorescence intensity)); higher = stronger DNA binding. Put shortly:
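DNA-binding domains from P. falciparum, fused to GST and produced in E. coli, were put on an Agilent 4 × 180k double-stranded probe array for 1 h in 1× PBS holding 1% milk, 0.2 mg/ml BSA, 0.5% salmon testes DNA and 0.03% Triton X-100. Probes were primer-extended, 36 bp long and drawn from intergenic genomic regions, with negative controls included. After Alexa488 anti-GST antibody detection and a 488 nm scan, binding intensity was set as the highest Masliner-normalised natural-log median intensity across replicate spots of either probe orientation.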
As to “ACAAAGAACTATAATACACACAAGAATATATTGGAT [CACACA_site7771]”, the “gcPBM binding intensity (ln)” value amounted to 6.8. To “AAAAAAATCACATAATATACTTTATTTTATTTTGTA [GTGCAC_negctrl_site562]” belongs 6.12; to “TATATATAGAAACACACACACACATATATATATATT [CACACA_site2539]”, 6.95; to “TTATAAGATTTATGTACACACATATACACCCCTCTA [CACACA_site4562]”, 6.8.

Take “AATAATTAAATATATTTATAACAGGAAAATATTTAT [XGTACX_negctrl_site175]”: the “gcPBM binding intensity (ln)” value amounted to 6.59.

In the case of ATAAATTATATTCAAGTGCATGTAACTTATTATTAT, the “gcPBM binding intensity (ln)” value worked out at 7.32. As to “ATATATATATAAATATAAATATATATATATATATAT [CACACA_negctrl_site1685]”, the “gcPBM binding intensity (ln)” value came to 9.18. To “GTTATAGAAGCATTCACACACACACCGACATACACA [CACACA_site4914]” belongs 6.85; to AATATATACATATGTATGCACTTTTTAATTATTTTT, 7.72. The same measure for “TATTATAATATATTTGTGCACATAATACCTCCGCTA [GTGCAC_site9570]”: 10.9; for “GTTATAGAAGCATTCACACACACACGGACATACACA [CACACA_site6801]”: 6.9.

On to “TTTTTTTATAAAAATGAACACACACCGATATATATA [CACACA_site9161]”, for which the “gcPBM binding intensity (ln)” value came to 7.14. The same measure for “TAGTAAGAATTACTGTGTACTAAAATATTAAAAAGT [XGTACX_site2578]”: 6.7; for “AAATAGTCTTCTCTTGCATGTAACAAATATATATAT [TGCATGCA_site428]”: 7.83; for “AATAAAAACAAACAAAAAAACAAATAAATAAATAAA [CACACA_negctrl_site483]”: 6.58. The same measure for “ATATTTTTTATAAAATGTACTTATTATTAGAATATA [XGTACX_site2460]”: 6.23; for “ACATATAAGTTATATACACACAATAATATGTAAATA [CACACA_site6766]”: 6.62. To “TACAAAATATGGTAATAAAGTAGTTACATGAATTGG [XGTACX_negctrl_site522]” belongs 6.26. Consider “ATGGAAATTTTATCATGTACATATACCGTTGAATAA [XGTACX_site5420]”, for which the “gcPBM binding intensity (ln)” value was 6.56.

Take “AATAAAAAAATTAAAATTAAAAAATTAAAACTTAAA [CACACA_negctrl_site987]”: the “gcPBM binding intensity (ln)” value was 5.6.

Turning to “TAACAAAATGTAAATAAACACACATATATATATATA [CACACA_site8352]”, the “gcPBM binding intensity (ln)” value came to 9.22.

Take “TATTATATAATTTTAACACACAAGAATATAAACTTT [CACACA_site1363]”: the “gcPBM binding intensity (ln)” value was found to be 6.28.

As to “TGAAGGAATACAGCTCGTACATGTGTAAAGAGATAA [XGTACX_site500]”, the “gcPBM binding intensity (ln)” value came to 6.97. To “TAATTTAAATGATGTAGTACATATAAATATATCTAA [XGTACX_site262]” belongs 5.93; to “AAAAAGAAAAAACTTACACACATATATACCCCCATG [CACACA_site4463]”, 7.77; to “AACATTCTATGTTGCACACAAAGAGAAAAATTTATT [CACACA_site3995]”, 9.13. To “ATTGATCTTTATTGTTGTACATTAAACGTTAATTTT [XGTACX_site1788]” belongs 6.44; to “ACTATAAATATATACACATGCGCACACACAAGTGGG [TGCATGCA_site432]”, 7.51. To “TACCTATAAAAGTACACACACACACGGATATAAATA [CACACA_site6569]” belongs 6.96; to “TAATTTATTGTACGTGCATGCTATTTTTTATTTTTA [TGCATGCA_site1059]”, 7.51. Turning to “TTGTAATATATAAAAGTGCATATATGGTTCCATATA [GTGCAC_site9544]”, the “gcPBM binding intensity (ln)” value is 7.68. “ATATGTGAATAAAAATGTACGTGTTCTTTTTTTTTT [XGTACX_site320]”: the “gcPBM binding intensity (ln)” value came to 6.15. To “AACAAAAAAACAAACACACACACACCCATATATATA [CACACA_site3652]” belongs 7.1; to “TCATACATTTTCCTTGCACACATTTATAATTAATGT [CACACA_site614]”, 8.95; to TTAAAAAATATATGCGTGCACTAATATTTCATATGC, 9.22. The same measure for “TGAATTAACAAATAGACACACATATATATATATATA [CACACA_site3195]”: 9.26; for “TACTATTTTTATAATACACACATATATTTGTGATAT [CACACA_site1775]”: 7; for “ACCATTTGTACTTACGCACACATAAAATATATATAT [CACACA_site1545]”: 8.06. With TCAAAAATTTATATAGTGCAATATATATATAATGTA, the “gcPBM binding intensity (ln)” value is 9.93. The same measure for “TGTGGCCCTGCGAGGTGGTCATCATGAATACGAAAA [XGTACX_site1526]”: 5.74. “AACCAGTTGATGTGTACACATATAGTAATAATTTTA [CACACA_site5564]”: the “gcPBM binding intensity (ln)” value came to 7.35. To “GTATTAATTTTAAGGTGTACGCAAAAAATTTAATTT [XGTACX_site718]” belongs 6.46; to “ATATATTTTTTTTATACATGCAATGCATTTACGTTG [TGCATGCA_site565]”, 7.15. To “TTTTTTTTTTTTTGAACACACATTATTAATTTTTAT [CACACA_site308]” belongs 6.3; to “TTTTTTATATATTAGGAATTTATAAAATTAGAAGGT [GTGCAC_negctrl_site617]”, 7.61.
